Laboratory results: PubChem BioAssay (NCI)
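Exposure lasted 48 hours, with cells grown in 96-well plates and compounds tested at five concentrations. Here, GI50 denotes the concentration required for 50% inhibition of growth. The concentration for full growth arrest is given as TGI.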

System: NCI-H322M lung
Test: growth of human tumour cells (NCI), 48 h

Question: `Cc1ccc(C(=O)N/N=C(\N=Nc2ccccc2Cl)c2ccc(N(C)C)cc2)cc1` was tested. Which TGI did it give?
Answer: > 100 µM

Question: How did the TGI turn out when `CC(C)(C)n1c(=O)n2n(c1=O)C1c3cccc4cccc(c34)C2C2c3cccc4cccc(c34)C1n1c(=O)n(C(C)(C)C)c(=O)n12` was run?
Answer: > 100 µM

Question: Which results are given for `CN(C)CCNC(=O)c1ccc2oc3cc4ccccc4c(=O)n3c2c1`?
Answer: GI50: 2.02 µM; TGI: 9.23 µM

Question: How did the GI50 turn out when `CN1CCN(CCCN2c3ccccc3Sc3ccc(Cl)cc32)CC1` was run?
Answer: 50.5 µM

Question: And the TGI?
Answer: 81.9 µM

Question: How did the TGI turn out when `CC(C)OP(=O)(OC(C)C)C(=NCCN=C(NNc1ccccc1[N+](=O)[O-])P(=O)(OC(C)C)OC(C)C)NNc1ccccc1[N+](=O)[O-]` was run?
Answer: > 100 µM

Question: Which results are given for `COc1ccc2c(c1)C(c1cc(OC)c3c(c1)OCO3)C1=C(COC1=O)N2` (stereo unspecified)?
Answer: GI50: 4.13 µM; TGI: > 100 µM

Question: How did the GI50 turn out when `COc1cc(CCNC(=O)OC(C)(C)C)c2c(c1OC)SSSSS2` was run?
Answer: 2.39 µM

Question: And the TGI?
Answer: 4.59 µM

Question: Which TGI does the source give for `O=[N+]([O-])C=C1c2ccccc2-c2ccccc21` here?
Answer: 31.5 µM

Question: Which TGI does the source give for `CS(=O)(=O)O[C@H]1[C@H](O)c2ccccc2[C@@H]1N=[N+]=[N-]` here?
Answer: > 100 µM

Question: `O=C(NCCCN(CCCCN(CCCNC(=O)c1cc(S(=O)(=O)O)cc(O)c1O)C(=O)c1cc(S(=O)(=O)O)cc(O)c1O)C(=O)c1cc(S(=O)(=O)O)cc(O)c1O)c1cc(S(=O)(=O)O)cc(O)c1O` was tested. Which TGI did it give?
Answer: > 100 µM

Question: For `O=c1oc2ccc(Br)cc2c(=O)n1-c1ccc(Cl)cc1F`, which GI50 is on record?
Answer: 0.564 µM

Question: What about the TGI of the same compound?
Answer: > 27.3 µM

Question: With `CCOC(=O)C1(N)CC1` as the compound, how does the TGI read?
Answer: > 100 µM

Question: Which TGI does the source give for `O=[N+]([O-])/C(Cl)=C/C(=C1/Nc2ccccc2O1)[N+](=O)[O-]` here?
Answer: 30.6 µM

Question: With `COC(=O)[C@]12CSC[C@H]1C[C@H](c1cccc3ccccc13)N2` as the compound, how does the TGI read?
Answer: > 100 µM

Question: `O=C1CC2CC(CC3(CO3)C2)C1F` (stereo unspecified) was tested. Which TGI did it give?
Answer: > 100 µM

Question: With `O=C1CS(=O)(=O)C(c2cccc(Oc3ccccc3)c2)N1C1CC1` (stereo unspecified) as the compound, how does the TGI read?
Answer: > 100 µM

Question: Which TGI does the source give for `NC(=O)Cn1c(=O)oc2cc(C(=O)CN3CCOCC3)ccc21` here?
Answer: > 100 µM

Question: With `COc1cccc(C2SCc3nc4ccccc4n32)c1` (stereo unspecified) as the compound, how does the TGI read?
Answer: > 100 µM

Question: For `O=S(=O)(O)c1ccc2c(N=Nc3ccccc3)c(O)ccc2c1`, which TGI is on record?
Answer: > 100 µM

Question: `Cc1cn(Cc2cn(CC3OC(n4cc(C)c(=O)[nH]c4=O)CC3O)nn2)c(=O)[nH]c1=O` (stereo unspecified) was tested. Which TGI did it give?
Answer: > 100 µM

Question: `C=C1C(=O)C2=CC1CCC(=O)C1(C)CCC(OC(C)=O)C(C)(C)C1CC2O` (stereo unspecified) was tested. Which TGI did it give?
Answer: 29.4 µM

Question: With `O=c1cccc2n1CC1CNC[C@H]2C1` as the compound, how does the TGI read?
Answer: > 100 µM

Question: How did the TGI turn out when `N=C(N)c1ccc(N=Nc2c(O)ccc3cc4c(N=Nc5ccc(C(=N)N)cc5)c(O)ccc4cc23)cc1` was run?
Answer: > 100 µM

Question: How did the TGI turn out when `Cc1ccc(S(=O)(=O)OCCOCCOCCOCCOCCOS(=O)(=O)c2ccc(C)cc2)cc1` was run?
Answer: 97.5 µM

Question: Which GI50 does the source give for `COc1ccc(-c2[nH]nc(N)c2-c2cc(OC)c(OC)c(OC)c2)cc1` here?
Answer: 0.0649 µM

Question: What about the TGI of the same compound?
Answer: > 100 µM

Question: How did the TGI turn out when `Cc1ccc(Sc2ccccc2N)cc1` was run?
Answer: > 100 µM

Question: How did the TGI turn out when `CN1CCN(Cc2nc3c(s2)CCc2sccc2-3)CC1` was run?
Answer: > 100 µM

Question: With `O=C(CSSCC(=O)OCCS(=O)(=O)Nc1ccc(Br)cc1)OCCS(=O)(=O)Nc1ccc(Br)cc1` as the compound, how does the TGI read?
Answer: > 100 µM

Question: Which TGI does the source give for `N#CCc1nnc(N)o1` here?
Answer: > 100 µM

Question: Which TGI does the source give for `O=C(O)CCCN=C(C1=C(O)C(=O)N(c2ccccc2)C1=O)c1ccccc1` here?
Answer: > 100 µM

Question: Which TGI does the source give for `CCOC(=O)C12CC(C)=C(C)CC1CCCc1ccccc12` (stereo unspecified) here?
Answer: > 100 µM

Question: Which results are given for `O=C(c1ccccc1)c1nc2ccc(C(F)(F)F)cc2nc1N1CCN(c2ccccc2)CC1`?
Answer: GI50: > 100 µM; TGI: > 100 µM

Question: With `CCCCCCCCCCCCSC(=S)c1c(C)[nH]n(CCCCCCCCCCCC)c1=O` as the compound, how does the TGI read?
Answer: > 100 µM

Question: `CC(C)c1ccc(/C=C/c2cc(C(=O)NNC(=O)NC3CCCCC3)nc(=S)[nH]2)cc1` was tested. Which TGI did it give?
Answer: > 100 µM

Question: For `COc1cc(/C=C/C(=O)c2c(-c3ccc(F)cc3)nc3sc(C)nn23)cc(OC)c1OC`, which GI50 is on record?
Answer: 2.88 µM

Question: What about the TGI of the same compound?
Answer: 9.07 µM

Question: With `O=C(CSSCC(=O)Nc1ccc(Br)cc1)Nc1ccc(Br)cc1` as the compound, how does the TGI read?
Answer: 91.3 µM

Question: With `C=C1C(=O)O[C@H]2[C@H]1CC/C(CNC(=O)/C=C/c1ccccc1F)=C\CC[C@@]1(C)O[C@@H]21` as the compound, how does the GI50 read?
Answer: 10.9 µM

Question: What about the TGI of the same compound?
Answer: 22.9 µM

Question: With `S=C1CC(c2ccccc2)Sc2cc(Cl)ccc2N1` (stereo unspecified) as the compound, how does the TGI read?
Answer: > 100 µM

Question: `Cc1ccsc1C(=S)Nc1ccc(Cl)c(/C=N/OC(C)C)c1` was tested. Which TGI did it give?
Answer: > 100 µM

Question: `O=C1CC(N2C(=O)/C(=C/C(Cl)=C\c3ccc([N+](=O)[O-])cc3)SC2=S)C(=O)N1c1ccc(O)cc1` (stereo unspecified) was tested. Which GI50 did it give?
Answer: 2.34 µM

Question: And the TGI?
Answer: 6.67 µM

Question: How did the GI50 turn out when `CCOC(=O)c1cc(NS(=O)(=O)c2ccc(C)cc2)cc(C(=O)OCC)c1` was run?
Answer: > 100 µM

Question: And the TGI?
Answer: > 100 µM

Question: `O=c1[nH]nc(Cc2ccccc2)n1/N=C/c1ccc([N+](=O)[O-])cc1` was tested. Which TGI did it give?
Answer: > 100 µM

Question: Which TGI does the source give for `COc1ccc(/C=C2\CCC(CCN3CCOCC3)C2=O)cc1` (stereo unspecified) here?
Answer: > 100 µM

Question: For `O=c1c(-c2ccccc2)c(SCCN2CCOCC2)n(-c2ccccc2)c(=S)n1-c1ccccc1`, which TGI is on record?
Answer: > 100 µM

Question: How did the TGI turn out when `COc1ccc2c(c1)[n+]([O-])c(/C(C)=N/NC(=O)c1ccccc1O)c(C)[n+]2[O-]` was run?
Answer: > 100 µM

Question: For `C=C(Cl)C(C)(Cl)CCC(Cl)C(C)C` (stereo unspecified), which TGI is on record?
Answer: > 100 µM

Question: Which TGI does the source give for `Cc1nc2c3c(ccc2[nH]c1=O)C(=O)c1ccccc1C3=O` here?
Answer: > 100 µM

Question: With `Cc1cc(C)nc(NS(=O)(=O)c2ccc(NC(=O)NC(F)(F)F)cc2)n1` as the compound, how does the TGI read?
Answer: > 100 µM

Question: How did the TGI turn out when `COc1ccc(/C=C/C(=O)c2sc(-c3cccnc3)nc2C)cc1` was run?
Answer: > 100 µM

Question: `NC(N)=N/N=C/c1c(-c2cccnc2)nc2sc(Cl)cn12` was tested. Which GI50 did it give?
Answer: 11 µM

Question: And the TGI?
Answer: 23.4 µM

Question: With `C[N+]12C=CC=C1C(N1CCCC1)c1scc(-c3ccc(F)cc3)c12` (stereo unspecified) as the compound, how does the TGI read?
Answer: > 100 µM

Question: `O=CN1CCC23CC(O)CCC2C1Cc1cc(Oc2nnnn2-c2ccccc2)cc(O)c13` (stereo unspecified) was tested. Which TGI did it give?
Answer: > 100 µM

Question: For `Cc1ccc(C(=O)Nc2ncn(C3CC(O)C(CO)O3)c(=O)n2)cc1` (stereo unspecified), which TGI is on record?
Answer: > 100 µM

Question: With `CN1C(=O)C2(c3ccccc31)C1CC3C(CO1)C1C2C3(CO)CN1C#N` (stereo unspecified) as the compound, how does the TGI read?
Answer: > 100 µM
